This is an account of results in the supplement of paper PMC7125110.

First the molecules themselves.
B1: glmS ribozyme (parent)
chain: AUAAAAGCGCCAGAACUACAGAAAUGUAGUUGACGAGGAGGAGGUUUAUCGAAUUUUCGGCGGAUGCCUCCAAA

± gives the standard error. For part of these data: This sample is rich in variants without activity.

Conditions in all cases: with glucosamine-6-phosphate
In data set [1] the parent is B1. Briefly: self-cleavage kobs at 640 uM GlcN6P; higher = faster cleavage; RNA array. The procedure, abridged: (§1)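 Barcoded ribozyme variants, transcribed in situ by E. coli RNA polymerase on sequenced MiSeq chips, were followed via a hybridised Cy3 probe at 37 °C. Glucosamine-6-phosphate ranged from 40 μM to 10 mM in HEPES/KCl/Mg(OAc)2 buffer. kobs came from decay fits to per-tile medians, and kcat and KM from weighted Michaelis–Menten fits.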

In data set [2] the parent is B1. Briefly: self-cleavage kobs at 160 uM GlcN6P; higher = faster cleavage; RNA array. The method, boiled down: as §1
The variants in data set [3] derive from B1. Description: self-cleavage kobs at 2500 uM GlcN6P; higher = faster cleavage; RNA array. The method, boiled down: as §1
In data set [4] the parent is B1. Briefly: self-cleavage kobs at 10000 uM GlcN6P; higher = faster cleavage; RNA array. The method, boiled down: as §1

Take AUAAAAGCGCCAGUACUACAGAAAUGUAGUUGACGAGGAGGAGGUUUAUUUAAUUUUCGGCGGAUGCCUCCAAA: the “self-cleavage kobs at 640 uM GlcN6P” value with glucosamine-6-phosphate [1] was less than 1e-05 s⁻¹. Moreover, the “self-cleavage kobs at 160 uM GlcN6P” value with glucosamine-6-phosphate [2] was less than 1e-05 s⁻¹. Moreover, in the data set with glucosamine-6-phosphate [3], the “self-cleavage kobs at 2500 uM GlcN6P” value is less than 1e-05 s⁻¹. Besides, the “self-cleavage kobs at 10000 uM GlcN6P” value with glucosamine-6-phosphate [4] is less than 1e-05 s⁻¹.

Consider AUAAAAGCGCCAGACCUACAGAAAUGUAGUAGACGAGGAGGAGGUUUAUCGAAUUUUCGGGGGAUGCCUCCAAA, for which, in the data set with glucosamine-6-phosphate [1], the “self-cleavage kobs at 640 uM GlcN6P” value is less than 1e-05 s⁻¹.

In the case of AUAAAAGCGCCAGACUACAGAAAUUGUAGUGGACGAGGAGGAGGUUUAUCGAAUUUUCGUCGGAUGCCUCCAAA, the “self-cleavage kobs at 640 uM GlcN6P” value in the data set with glucosamine-6-phosphate [1] was less than 1e-05 s⁻¹.

Regarding AUAAAAGCGCCAGUACUACAGAAAUGUAGUUGACGGGGAAAAGGUUUAUCGAAAUUACGGCGGAUGCCUCUAAA, the “self-cleavage kobs at 640 uM GlcN6P” value with glucosamine-6-phosphate [1] was less than 1e-05 s⁻¹.

Regarding AUAAAAGCGCCAGUACUACAGAAAUGUAGUUGACGAGGAGGAGGUAUAUCGAAUUUUCGGCGGAUGCCUCCAAA, the “self-cleavage kobs at 640 uM GlcN6P” value with glucosamine-6-phosphate [1] is 9.67e-05 ± 1.3e-05 s⁻¹. The “self-cleavage kobs at 160 uM GlcN6P” value with glucosamine-6-phosphate [2] was 2.43e-05 ± 9.4e-06 s⁻¹. Besides, in the data set with glucosamine-6-phosphate [3], the “self-cleavage kobs at 2500 uM GlcN6P” value is 0.000343 ± 3.4e-05 s⁻¹. Moreover, the “self-cleavage kobs at 10000 uM GlcN6P” value in the data set with glucosamine-6-phosphate [4] stood at 0.000323 ± 3.5e-05 s⁻¹.

For the variant AUAAAAGCGCCAGUACUACAGAAAUGUAGUUGAUGACGAGGAGGUUUAUCAAAUCUUCGGCGGAUGCCUCCAAA, in the data set with glucosamine-6-phosphate [1], the “self-cleavage kobs at 640 uM GlcN6P” value was less than 1e-05 s⁻¹.

For AUAAAAGCGCCAGUACUACAGAAAUGUAGUUGACGAGGAGGUGGUUUAUCGAAUUUUCGGCGGCUGCCUCCAAA, in the data set with glucosamine-6-phosphate [1], the “self-cleavage kobs at 640 uM GlcN6P” value is less than 1e-05 s⁻¹. In addition, the “self-cleavage kobs at 2500 uM GlcN6P” value with glucosamine-6-phosphate [3] was less than 1e-05 s⁻¹.

AUAAAAGCGCCAGGACUACAGAAAUGUAAUUUACGAGGAGGAGGUUUAUCGAAUUUUCGGCGGAUGCCUCCAAA: the “self-cleavage kobs at 640 uM GlcN6P” value with glucosamine-6-phosphate [1] turned out to be 0.000272 ± 0.0001 s⁻¹. Moreover, the “self-cleavage kobs at 2500 uM GlcN6P” value with glucosamine-6-phosphate [3] amounted to 0.000568 ± 0.00014 s⁻¹.

For AUAAAAGCGCCAGGACUACAGAAAUGUAGUUGACGAGUAGGAGUUUUAUCGAAUUUUCGGCGGAUGCCUCCAAA, in the data set with glucosamine-6-phosphate [1], the “self-cleavage kobs at 640 uM GlcN6P” value is less than 1e-05 s⁻¹.

As to AUAAAAGCGCCAGCACUACAGAAAUGUAGCUGACGAGGAGGAGGUUUAUCGUAUUUUCGCCGGAUGCCUCCAAA, the “self-cleavage kobs at 640 uM GlcN6P” value with glucosamine-6-phosphate [1] is less than 1e-05 s⁻¹. In addition, the “self-cleavage kobs at 2500 uM GlcN6P” value in the data set with glucosamine-6-phosphate [3] was less than 1e-05 s⁻¹.

With AUAAAAGCGCCAGGACUACAGAAAUGUAGGUAACGAGGAGGAGCUUUAUCGAAUUUUUGGCGGAUGCCUCCAAA, the “self-cleavage kobs at 640 uM GlcN6P” value in the data set with glucosamine-6-phosphate [1] is less than 1e-05 s⁻¹. Further, in the data set with glucosamine-6-phosphate [3], the “self-cleavage kobs at 2500 uM GlcN6P” value is less than 1e-05 s⁻¹.

For the variant AUAAAAGCGCCAGCACUACAGAAAUGUAGUUGACGAGGAGGAGGUUUAUCCAAUUUUCGGCGGAUGCCUCCAAA, in the data set with glucosamine-6-phosphate [1], the “self-cleavage kobs at 640 uM GlcN6P” value is less than 1e-05 s⁻¹. Further, the “self-cleavage kobs at 2500 uM GlcN6P” value with glucosamine-6-phosphate [3] was less than 1e-05 s⁻¹. Moreover, in the data set with glucosamine-6-phosphate [4], the “self-cleavage kobs at 10000 uM GlcN6P” value was less than 1e-05 s⁻¹.

With AUAAAAGCGCCAGCACUACAGAAAUGUAGUUGACGAGGAGGAGGUUUAUCCAAUUUUCGGUGGAUGCCUCCAAA, the “self-cleavage kobs at 640 uM GlcN6P” value with glucosamine-6-phosphate [1] was less than 1e-05 s⁻¹. Moreover, the “self-cleavage kobs at 2500 uM GlcN6P” value in the data set with glucosamine-6-phosphate [3] was less than 1e-05 s⁻¹.

On to AUAAAAGCGCCAGGACUACAGAAAUGUAGUUGACGAGGAGGAGGUUUAUCGAAUUUUGGGCGGAUGCCUCCAAA, for which, in the data set with glucosamine-6-phosphate [1], the “self-cleavage kobs at 640 uM GlcN6P” value was 7.22e-05 ± 2.1e-05 s⁻¹. Besides, the “self-cleavage kobs at 160 uM GlcN6P” value in the data set with glucosamine-6-phosphate [2] was 4.95e-05 ± 1.8e-05 s⁻¹.

Consider AUAAAAGCGCCAGUACUACAGAAAUGUAGUUGACGCGGAGGAGGUUUAUCGAAUUUUCGGCGGUUGCCUCCAAA, for which the “self-cleavage kobs at 640 uM GlcN6P” value with glucosamine-6-phosphate [1] is less than 1e-05 s⁻¹. Further, the “self-cleavage kobs at 160 uM GlcN6P” value with glucosamine-6-phosphate [2] is less than 1e-05 s⁻¹. Moreover, the “self-cleavage kobs at 10000 uM GlcN6P” value in the data set with glucosamine-6-phosphate [4] is less than 1e-05 s⁻¹.

For the variant AUAAAAGCGCCAGUGCUACAGAAAUGUAGUUGACGAAGAGGAGGUUUAUCGAAUUUUCGGCGGAUGCCUCCAAA, the “self-cleavage kobs at 640 uM GlcN6P” value with glucosamine-6-phosphate [1] worked out at 0.000119 ± 2.8e-05 s⁻¹.

For AUAAAAGCGCCAGACCUACAGAAAUGUAGUUGUCGAGGAGGAGGUUUAUCGAAUUCUCGGCGGAUGACGCCAAA, the “self-cleavage kobs at 640 uM GlcN6P” value in the data set with glucosamine-6-phosphate [1] was less than 1e-05 s⁻¹.

AUAAAAGCGCCAGACCUACAGAAAUGUAGUUGACGAGGAGGAGGUUUAUCGAAUUUUCGGCGGAUGGCUCCAAA: the “self-cleavage kobs at 640 uM GlcN6P” value with glucosamine-6-phosphate [1] is 3.9e-05 ± 1.4e-05 s⁻¹. Besides, the “self-cleavage kobs at 2500 uM GlcN6P” value in the data set with glucosamine-6-phosphate [3] came to 8.12e-05 ± 1.4e-05 s⁻¹. For the same variant, in the data set with glucosamine-6-phosphate [4], the “self-cleavage kobs at 10000 uM GlcN6P” value stood at 0.000114 ± 1.8e-05 s⁻¹.
